Assay results taken from PubChem BioAssay AID360 (National Center for Advancing Translational Sciences (NCATS), 2006).
Hit rate of the full screen: of about 48,000 compounds, about 550 (1.1%) were called active. Not shown: some 4% with an inconclusive outcome. Rule as the data show it: active = potency below about 15 µM; inconclusive = mostly about 16 µM to 33 µM; inactive = weaker than that. The list shows a part of the results.

Target: Lysosomal acid glucosylceramidase (Homo sapiens) (UniProt P04062)
Experiment: Glucocerebrosidase;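 also: the screen sought inhibitors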
Conditions: purified enzyme, resorufin glucoside fluorescence (screen aimed at inhibitors), 20 min; series mostly up to 77 µM
Outline: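 Wild-type enzyme at 0.2 nM final in 50mM citric acid/KH2PO4, 10mM sodium taurocholate, 0.01% tween-20, pH 5.9, with resorufin beta-D-glucopyranoside at 30 uM final. Compounds titrated, 20 min at RT, red fluorescence read; AC50 from titration.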
Potency is read from the fitted curve at half-maximal effect.

Chain of UniProt P04062 (P04062 whole entry, looked up): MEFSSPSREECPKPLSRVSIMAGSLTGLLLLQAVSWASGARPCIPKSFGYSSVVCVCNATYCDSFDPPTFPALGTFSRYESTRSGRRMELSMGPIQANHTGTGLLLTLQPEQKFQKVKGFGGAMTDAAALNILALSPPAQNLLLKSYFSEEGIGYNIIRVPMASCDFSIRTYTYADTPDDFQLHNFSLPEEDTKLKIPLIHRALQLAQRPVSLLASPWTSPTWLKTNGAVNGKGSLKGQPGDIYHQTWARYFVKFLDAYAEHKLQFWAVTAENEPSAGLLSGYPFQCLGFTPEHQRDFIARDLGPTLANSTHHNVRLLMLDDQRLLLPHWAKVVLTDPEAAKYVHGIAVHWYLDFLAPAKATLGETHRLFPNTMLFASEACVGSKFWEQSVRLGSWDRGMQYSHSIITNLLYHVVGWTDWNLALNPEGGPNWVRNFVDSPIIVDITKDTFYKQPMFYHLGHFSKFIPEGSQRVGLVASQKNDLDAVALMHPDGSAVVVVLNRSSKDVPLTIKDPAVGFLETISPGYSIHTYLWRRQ

| Compound | Potency |
| --- | --- |
| CCCc1noc(-c2ccc(-c3ccccc3)cc2)n1 | inactive: > 76.9 µM |
| COc1ccc(C2C3=C(CCCC3=O)Nc3nc4ccccc4n32)c(OC)c1OC (stereo not drawn) | inactive: > 76.9 µM |
| O=S(=O)(Nc1nccs1)c1ccc(NS(=O)(=O)c2cccs2)cc1 | inactive: > 76.9 µM |
| CCC1(c2ccccc2)NC(=O)N(CC(=O)Nc2ccc3c(c2)OCO3)C1=O (stereo not drawn) | inactive: > 76.9 µM |
| O=C(NCC(c1cccnc1)N1CCN(c2ccccc2)CC1)c1ccco1 (stereo not drawn) | inactive: > 76.9 µM |
| O=C(c1ccco1)N1CCC(c2nc(-c3ccc(F)cc3)no2)CC1 | inactive: > 76.9 µM |
| CCc1nc2ccccc2n1Cc1ccccc1OC | inactive: > 76.9 µM |
| CCN(C#N)c1nc(N(C)C)nc(N(C)C)n1 | inactive: > 76.9 µM |
| CCN=C1SC(CC(=O)Nc2ccccc2OCC)C(=O)N1CC (stereo not drawn) | inactive: > 76.9 µM |
| CCn1cc(C2=NCC(C)O2)c2ccccc21 (stereo not drawn) | inactive |
| CC(Oc1ccccc1)C(=O)NCc1cccnc1 (stereo not drawn) | inactive: > 76.9 µM |
| CCC(C)(C)n1nnnc1C(c1cccc(C#N)c1)N1CCN(c2cccc(C)c2C)CC1 (stereo not drawn) | inactive: > 76.9 µM |
| CN(C)C=Nc1ncc2c3ccccc3n(Cc3ccccc3)c2c1C#N | inactive: > 76.9 µM |
| CCc1nn(CC(=O)N2CCN(Cc3ccc4c(c3)OCO4)CC2)c(=O)c2cc3occc3n12 | inactive: > 76.9 µM |
| CC1CCCCN1CC(=O)NCc1ccc2c(c1)OCO2 (stereo not drawn) | inactive: > 76.9 µM |
| CCN1C(=O)CC(C(=O)O)SC1=Nc1ccc(OC)cc1 (stereo not drawn) | inactive: > 76.9 µM |
| O=C(O)C1CC(=O)N(c2ccc(Br)cc2)C1 (stereo not drawn) | inactive: > 76.9 µM |
| Cc1ccccc1OCC(=O)Nc1ccc(N2CCN(C(=O)C(C)C)CC2)c(Cl)c1 | active: 2.17 µM |
| CCCCc1c(O)nc(SCC(=O)N2CCOCC2)[nH]c1=O | inactive: > 76.9 µM |
| CSCCC(NC(=O)C1CC1)c1nc2ccccc2[nH]1 (stereo not drawn) | inactive: > 76.9 µM |
| NC(=O)C1CCN(C(=O)CN2C(=O)c3ccccc3S2(=O)=O)CC1 | inactive: > 76.9 µM |
| Cc1cc2ccccc2c(=O)n1CC(=O)N(C)c1ccc(F)cc1 | inactive: > 76.9 µM |
| Cc1oc(-c2ccc(Cl)cc2)nc1CS(=O)CC(=O)NCCCN(C)C1CCCCC1 (stereo not drawn) | inactive: > 76.9 µM |
| CCN(CC)c1ccc(C(=O)OCC(=O)c2ccco2)cc1 | inactive: > 76.9 µM |

| Compound | Potency |
| --- | --- |
| Cc1ccc(S(=O)(=O)C2(C(=O)NC3CCCC3)CC2)cc1 | inactive: > 76.9 µM |
| O=C(NCCSc1ccccc1)c1ccccc1 | inactive: > 76.9 µM |
| NC(=O)COC(=O)CNC(=O)c1ccc(Cl)cc1 | inactive: > 76.9 µM |
| Fc1ccccc1CSc1nnc(Cn2cnc3ccccc32)n1-c1ccccc1 | inactive: > 76.9 µM |
| COc1ccc(Br)cc1CNc1ccc(O)cc1 | inactive |
| CC(NC(=O)COc1cccc(Br)c1)C(=O)O (stereo not drawn) | inactive: > 76.9 µM |
| COc1ccccc1N(C(=O)c1ccco1)C(C(=O)NC1CCCC1)c1cccnc1 (stereo not drawn) | inactive: > 76.9 µM |
| c1ccc(-c2nnc(CSc3nncs3)o2)cc1 | inactive: > 76.9 µM |
| CCOC(=O)c1sc2nc(C)n(CC(=O)NCC3CCCO3)c(=O)c2c1C (stereo not drawn) | inactive: > 76.9 µM |
| FC(F)(F)c1nc2ncc(Cl)cc2[nH]1 | inactive: > 76.9 µM |
| O=S(=O)(c1ccccc1C(F)(F)F)N1CCOCC1 | inactive: > 76.9 µM |
| CCS(=O)(=O)N1CCc2cc(OC)c(OC)cc2C1 | inactive: > 76.9 µM |
| CCOC(=O)N1CCN(C(=O)c2cccc(-n3c(=S)[nH]c4cc(Cl)ccc4c3=O)c2)CC1 | inactive: > 76.9 µM |
| COc1ccc2nc(N3CCC(C)CC3)c(C#N)cc2c1 | inactive: > 76.9 µM |
| CC(C)(C)n1nc2c(c1NC(=O)c1ccc(S(=O)(=O)N3CCCCC3)cc1)CS(=O)C2 (stereo not drawn) | inactive: > 76.9 µM |
| Cc1cc(C(=O)COC(=O)C2=COCCO2)c(C)n1-c1ccc2c(c1)OCO2 | inactive: > 76.9 µM |
| CCOC(=O)C1CCN(C(=O)C2CCN(S(=O)(=O)c3cc(Cl)ccc3Cl)CC2)CC1 | inactive: > 76.9 µM |
| O=C(Nc1ccc(C(=O)N2CCOCC2)cc1)Nc1cccc(Cl)c1 | inactive: > 76.9 µM |
| CCOC(=O)CSc1nnc(CNC(=O)c2ccc(OC)cc2)n1C1CCCCC1 | inactive: > 76.9 µM |
| Cc1cc(=O)oc2ccc(OCC(=O)N3CCC(C)CC3)cc12 | inactive: > 76.9 µM |
| COCc1cc(C)n(CC(=O)NC(C)c2ccccc2)c(=O)c1C#N (stereo not drawn) | inactive: > 76.9 µM |
| Cc1ccc(C)c(Cn2c(C(C)O)nc3ccccc32)c1 (stereo not drawn) | inactive: > 76.9 µM |
| O=C(CCSc1nnc(-c2ccncc2)o1)Nc1ccc(F)cc1 | inactive: > 76.9 µM |
| O=C(OCc1ccccc1F)c1ccc2c(c1)OCCO2 | inactive: > 76.9 µM |

| Compound | Potency |
| --- | --- |
| CCN(CC)C(=O)CSc1nc2ncc(Br)cc2[nH]1 | inactive: > 76.9 µM |
| CCn1cnc2c1c(=O)n(CC(=O)Nc1cc(C)on1)c(=O)n2Cc1ccccc1 | inactive: > 76.9 µM |
| C1CSC2(N1)C1CC3CC(C1)CC2C3 (stereo not drawn) | inactive: > 76.9 µM |
| COc1ccc(S(=O)(=O)N2CCCC(C(=O)NCc3ccccn3)C2)cc1Cl (stereo not drawn) | inactive: > 76.9 µM |
| COc1ccc(NC(=O)CCNC(=O)Cn2cnc3ccccc3c2=O)c(OC)c1 | inactive: > 76.9 µM |
| c1ccc(CNC2=NCCCCC2)cc1 | inactive: > 76.9 µM |
| CC(=O)C1=C(O)C(=O)N(Cc2ccco2)C1c1ccc(F)cc1 (stereo not drawn) | inactive: > 76.9 µM |
| CCn1c(SC)nc2c(c1=O)SC(C)C2 (stereo not drawn) | inactive: > 76.9 µM |
| COc1ccccc1N1CCN(C(=O)c2oc3ccccc3c2C)CC1 | inactive: > 76.9 µM |
| O=C(c1ccco1)N1CCn2c1nc1ccccc12 | inactive: > 76.9 µM |
| O=C(O)CCc1ccc(-c2ccc(F)cc2)n1NC(=O)c1ccco1 | inactive: > 76.9 µM |
| COC(=O)C1=CNC=C(C(=O)OC)C1c1ccccc1Cl | inactive: > 76.9 µM |
| Cc1c(Cl)cccc1NC(=O)CC1SCCNC1=O (stereo not drawn) | inactive: > 76.9 µM |
| O=C(Nc1ccccc1)NC1(C(=O)NCCCN2CCOCC2)CCCCC1 | inactive: > 76.9 µM |
| CCOC(=O)c1ccc(CSc2nnc(-c3ccncc3)n2N)cc1 | inactive: > 76.9 µM |
| Clc1ccc(OCCn2cnc3ccccc32)cc1 | inactive: > 76.9 µM |
| O=C(Nc1ccccc1-c1ccccc1)NC1CCN(C(=O)N2CCOCC2)CC1 | inactive: > 76.9 µM |
| CC(=O)c1ccc(N2CCN(C(=O)C3(S(=O)(=O)c4ccc(Cl)cc4)CC3)CC2)cc1 | inactive: > 76.9 µM |
| CC(=O)N1CCN(Cc2nc3cc(NS(C)(=O)=O)ccc3n2C)CC1 | inactive: > 76.9 µM |
| Cc1nc(SCC(=O)Nc2ccccc2)c2oc3ccccc3c2n1 | inactive: > 76.9 µM |
| Cn1c(SCC(=O)Nc2ccc(N3CCOCC3)cc2)nnc1-c1ccccc1 | inactive: > 76.9 µM |
| COc1cccc(C(=O)Cn2c(N3CCOCC3)nc3c2c(=O)n(C)c(=O)n3C)c1 | inactive: > 76.9 µM |
| O=C(O)CCN1C(=O)c2ccccc2C1=O | inactive: > 76.9 µM |
| Cc1cc(N(C(=O)c2ccco2)C(C(=O)NC2CCCCC2)c2ccccc2)ccc1-n1cnnn1 (stereo not drawn) | inactive: > 76.9 µM |

| Compound | Potency |
| --- | --- |
| COc1cccc(-n2nnnc2SCC(=O)Nc2cccc(C)n2)c1 | inactive: > 76.9 µM |
| COc1ccccc1N1CCN(C(c2ccc(Cl)cc2)c2nnnn2C(C)(C)C)CC1 (stereo not drawn) | inactive: > 76.9 µM |
| CN(CC(=O)Nc1ccccc1Cl)C(=O)COC(=O)CNC(=O)c1ccc(Br)o1 | inactive: > 76.9 µM |
| Cc1cc(C)n(-c2nc3ccccc3c(=O)n2OCc2ccc(F)cc2)n1 | inactive: > 76.9 µM |
| CCN(CCCNC(=O)c1c(C)cc(=O)oc1C)c1ccccc1 | inactive: > 76.9 µM |
| CCOc1cc(C(=O)OCC(=O)NCc2ccco2)cc(OCC)c1OCC | inactive |
| C=C(C)COc1ccc2c(C)c(C)c(=O)oc2c1OCC(=C)C | inactive: > 76.9 µM |
| COc1cc(C2NC(=O)NC(c3ccccc3)=C2C(C)=O)ccc1OCC#N (stereo not drawn) | inactive: > 76.9 µM |
| O=C(Cn1nnc(-c2ccccc2-n2cnnn2)n1)N1CCCCC1 | inactive: > 76.9 µM |
| O=S(=O)(NCCc1ccccc1)c1ccc(S(=O)(=O)N2CCCCC2)cc1 | inactive: > 76.9 µM |
| O=C(O)c1ccc(COCC(F)(F)F)cc1 | inactive: > 76.9 µM |
| CCOC(=O)C(O)(NC(=O)c1cccnc1)C(F)(F)F (stereo not drawn) | inactive: > 76.9 µM |
| N#Cc1ccc(COC(=O)c2ccc3c(=O)[nH]c(CN4CCOCC4)nc3c2)cc1 | inactive: > 76.9 µM |
| CCOC(=O)C1CCCN(CCC(=O)Nc2cccc(F)c2)C1 (stereo not drawn) | inactive: > 76.9 µM |
| Cc1cccc(OCCC(=O)Nc2ccc(S(=O)(=O)N3CCCC3)cc2)c1 | inactive: > 76.9 µM |
| COc1ccc(CCNC(=O)Cn2nnc(-c3cccc(OC)c3OC)n2)cc1OC | inactive: > 76.9 µM |
| COc1ccc(OCCSc2ncccn2)cc1 | inactive: > 76.9 µM |
| COc1ccccc1C(=O)NC(C)c1nc2ccccc2[nH]1 (stereo not drawn) | inactive: > 76.9 µM |
| O=C(Nc1c(Cl)cccc1Cl)C1CCC1 | inactive: > 76.9 µM |
| CN(C)c1nc(Nc2ccccc2)nc(Oc2ccc(=O)[nH]n2)n1 | inactive: > 76.9 µM |
| Cc1nc2ccccn2c1P(=Nc1ccccc1)(N(C)C)N(C)C | inactive: > 76.9 µM |
